# From PubChem BioAssay AID2100 (National Center for Advancing Translational Sciences (NCATS), 2009)
# The campaign covered roughly 300,000 compounds. About 1,200 (0.4%) were called active. This list was built around the results that the source calls inconclusive (neither active nor inactive); the mix of calls is not that of the screen. Calls come from the whole dose curve; as a rule, active = well fitted inhibition curve with a large enough effect; inconclusive = small, poorly fitted or top-dose-only effect, or another doubt; inactive = no such curve, though single readings can be large or run the other way. Potencies beside an inconclusive call are fits to weak or partial responses and may not hold up.
# Target: Lysosomal alpha-glucosidase (Homo sapiens) (UniProt P10253)
# Experiment: qHTS Assay for Inhibitors and Activators of Human alpha-Glucosidase Cleavage of Glycogen;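 for activity change, negative = inhibition: 0% = full enzyme reaction and -100% = no-enzyme basal signal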
# Conditions: recombinant GAA, glycogen substrate, Amplex Red glucose oxidase fluorescence; activity change, negative = inhibition: at 76.4 µM (top of the series) unless noted
# In short: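 qHTS, 1536-well; enzyme 4 nM final; cpd up to 77 uM; substrate bovine liver glycogen 30 ug; 50 mM citrate/phosphate pH 5.0, 0.01% Tween-20; 37 C, 40 min; Amplex Red detection 45 min RT; Hill fit → AC50.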
# Potency is the fitted concentration of half-maximal effect.
SMILES,Potency,"activity change, negative = inhibition"
CC(=O)Nc1ccc(S(=O)(=O)NNC(=O)C(=O)NNc2ccccn2)cc1,"inconclusive: 3.14 µM [inhibitor, full curve]",–
Cc1ccc(NC(=O)c2nc3nccc(C)n3n2)c(C)c1,"inconclusive: 50.1 µM [inhibitor, single point]",–
Cc1ccc(NCC(=O)N/N=C\c2cccc(O)c2)cc1,"inconclusive: 15.8 µM [inhibitor, partial curve]",–
N#CC1=C(SCC(=O)NC2CC2)NC(=O)C(C#N)C12CCCCC2 (stereo unspecified),active: 25.1 µM,–
O=C(NNc1ccccc1)C(=O)N1CCCCC1,"inconclusive: 10 µM [inhibitor, partial curve]",–
COc1ccc(C2C3=C(CC(C)(C)CC3=O)Nc3c2c(=O)n(C)c(=O)n3C)cc1OC (stereo unspecified),–,inactive: -14.8%
Cc1[nH]c2ccccc2c1/C=N/NC(N)=S,"inconclusive: 22.4 µM [inhibitor, partial curve]",–
COc1cc(/C=C2\SC(=S)N(NC(=O)c3ccccc3O)C2=O)ccc1O,"inconclusive: 39.8 µM [inhibitor, partial curve, poor fit]",–
Cc1ccnc(Nc2nc(-c3ccc(O)cc3)cs2)c1,–,inactive: -4.13% [at 76.3 µM]
COc1ccc(-c2nnc(SCC(=O)Oc3cc(C)ccc3C)o2)cc1,–,inactive: 12.8% [at 76.3 µM]
Cc1c(N/C=C(\Cl)C(=O)C(F)(F)F)c(=O)n(-c2ccccc2)n1C,active: 31.6 µM,–
O=C(NC(=S)Nc1ccc(N2CCCCC2)cc1)c1cccs1,"inconclusive: 28.2 µM [inhibitor, single point]",–
CCOc1cc(/C=N/O)ccc1OS(=O)(=O)c1ccc(C)cc1,"inconclusive: 24.9 µM [inhibitor, partial curve, poor fit]",–
Cc1nn(Cc2ccc(Cl)cc2)c(C)c1N,"inconclusive: 50.1 µM [inhibitor, single point]",–
Cc1ccc2[nH]c(C)c(CC(=O)O)c2c1,"inconclusive: 2.8 µM [inhibitor, full curve]",–
[S-]C(=Nc1ccc(Cl)cc1)N[n+]1ccccc1,"inconclusive: 8.91 µM [inhibitor, single point]",–
CCC(C)S(=O)(=O)c1oc(-c2ccc(F)cc2)nc1S(=O)(=O)c1ccc(F)cc1 (stereo unspecified),–,inactive: -9.06% [at 76.3 µM]
CC(C)CC1CC(=O)OC1(C)C(=O)CSc1nc2ccccc2s1 (stereo unspecified),"inconclusive: 35.5 µM [inhibitor, partial curve]",–
Cc1c(NC(=O)C(=O)/C=C(\O)c2ccc(Br)cc2)c(=O)n(-c2ccccc2)n1C,"inconclusive: 28.2 µM [inhibitor, partial curve]",–
CC(=O)Nc1ccc(S(=O)(=O)N2CCC(c3nc4c(nnn4Cc4ccccc4Cl)c(=O)[nH]3)CC2)cc1,"inconclusive: 28.2 µM [inhibitor, single point]",–
CCN1CCN(c2cc(C)c3cc(NC(=O)/C=C/c4ccc(OCCC(C)C)cc4)ccc3n2)CC1,–,inactive: -4.68% [at 76.3 µM]
CC(C)=NNC(=O)C1=NNC(=O)C1,"inconclusive: 7.94 µM [inhibitor, full curve]",–
CCOC(=O)c1c(C)[nH]c2ccc(O)cc12,"inconclusive: 25.1 µM [inhibitor, partial curve]",–
O=[N+]([O-])c1cc(/C=N/N/C(=N/c2ccccn2)c2ccccn2)ccc1O,"inconclusive: 44.7 µM [activator, single point]",–

SMILES,Potency,"activity change, negative = inhibition"
CCOC(=O)C1Nc2ccc(C(=O)O)cc2C2C=CCC12 (stereo unspecified),"inconclusive: 35.5 µM [activator, single point]",–
COc1ccc(-c2nc(-c3cccs3)c(-c3cccs3)[nH]2)cc1O,"inconclusive: 22.2 µM [inhibitor, single point]",–
CCOC(=O)C1C(=O)C=C(c2ccc(OC)cc2)CC1c1ccco1 (stereo unspecified),"inconclusive: 63.1 µM [inhibitor, partial curve]",–
CCNC(=S)NNc1nc(N2CCCCC2)nc(N2CCOCC2)n1,"inconclusive: 20 µM [inhibitor, partial curve]",–
C#CCOCCOCCOCCNc1nc(N2CCN(C(=O)[C@H]([C@@H](C)CC)n3cc(CCCN=C(N)N)nn3)CC2)nc(N2CCN(C(=O)[C@H](CCCCN)n3cc(CCCC)nn3)CC2)n1,–,inactive: 5.98%
CC(/C=N/Nc1nc2ccccc2[nH]1)=C\c1ccccc1,"inconclusive: 28.2 µM [inhibitor, partial curve]",–
COc1ccc(NC(=O)C(C)N2Cc3ccccc3C2=O)cc1OC (stereo unspecified),–,inactive: -5.02% [at 76.3 µM]
CCN1C(=O)/C(=C2/C=Cc3cc(C)ccc3N2CC)N(C)C1=S,"inconclusive: 5.01 µM [inhibitor, single point]",–
Cc1nc2ccc(-c3nc4ccc(N)cc4[nH]3)cc2[nH]1,"inconclusive: 12.5 µM [inhibitor, partial curve]",–
CC(=O)c1ccc(N2CCN(C(=O)c3ccc(Br)cc3)CC2)c(F)c1,–,inactive: -3.81%
CSc1ncccc1C(=O)NNc1cc(Cl)ccc1Cl,"inconclusive: 3.52 µM [inhibitor, single point]",–
CCOC(=O)N1CCC(c2cc(=O)n(-c3ccccc3)[nH]2)CC1,"inconclusive: 31.6 µM [inhibitor, single point]",–
COc1ncnc2c1N=C1CC(C)(C)CC(N)=C1S2,"inconclusive: 22.4 µM [inhibitor, partial curve]",–
Cc1cc(=O)[nH]c2c(C)c(Cl)ccc12,–,inactive: -1.26%
O=C1/C(=C\c2ccc(O)c(O)c2)SC(=S)N1Cc1ccccc1,"inconclusive: 39.8 µM [inhibitor, single point]",–
CCOC(=O)c1cccc(NC(=O)C2=C(C)C(=O)OC23CCCCC3)c1,–,inactive: -5.23% [at 76.3 µM]
CN(C)c1ccc(Cl)cc1N,"inconclusive: 19.8 µM [inhibitor, partial curve]",–
C/C(=N\NC(=O)c1ccc(N/N=C(\C)c2ccc(O)cc2)cc1)c1ccc(O)cc1,"inconclusive: 6.31 µM [inhibitor, full curve]",–
C/C(=N/Nc1ncc(C(F)(F)F)cc1Cl)c1ccncc1,"inconclusive: 31.6 µM [inhibitor, single point]",–
C=CCN1C(=O)C(C)(C)Nc2ccccc21,"inconclusive: 31.6 µM [inhibitor, single point]",–
Cc1ccc(NC(=S)NC(CO)C(O)c2ccc([N+](=O)[O-])cc2)cc1 (stereo unspecified),"inconclusive: 2 µM [inhibitor, partial curve]",–
CCOC(=O)c1c(/N=C/c2ccc(C)cc2O)sc2c1CCC2,active: 14.1 µM,–
COc1ccc(C(=O)Nc2ccccc2C(=O)N/N=C/c2cccc3ccccc23)cc1,–,inactive: -6.06%
CCC1(C)Cc2ccccc2-c2nc(NN)[nH]c(=O)c21 (stereo unspecified),"inconclusive: 35.5 µM [inhibitor, single point]",–

SMILES,Potency,"activity change, negative = inhibition"
Cc1ccc([N+](=O)[O-])cc1-c1[nH]c(-c2ccc(O)c(O)c2)nc1-c1ccccc1,active: 14.1 µM,–
COc1cc(CN2CCN(c3cccc(C)c3C)CC2)cc(OC)c1O,active: 28.2 µM,–
Oc1ccc(/C=N/Nc2ccc(C(F)(F)F)cn2)cc1O,active: 3.52 µM,–
O=C(CN1CCCC1)N1CCCc2c1c(=O)oc1ccc(OCc3ccccc3)cc21,"inconclusive: 39.5 µM [inhibitor, single point]",–
CCN(CC)c1ccc(/C=N/Nc2cccc(C)c2)c(O)c1,–,inactive: -26.8%
C/C(=C\C(=O)c1ccc(C)o1)Nc1ccc2c(c1)OCO2,active: 28.2 µM,–
CCOc1cc(/C=N/Nc2nn3cnnc3c3ccccc23)ccc1O,"inconclusive: 35.5 µM [inhibitor, partial curve]",–
COc1cc(/C=N/Nc2nc3ccccc3s2)cc([N+](=O)[O-])c1O,"inconclusive: 39.8 µM [inhibitor, partial curve]",–
COc1ccc(COC(=O)N/C=C/c2ccco2)cc1,–,inactive: -8.25%
Cc1c(C(O)CN2CCN(Cc3ccc4c(c3)OCO4)CC2)c2ccccc2n1C (stereo unspecified),"inconclusive: 12.5 µM [inhibitor, partial curve]",–
O=C(CN1CCN(S(=O)(=O)c2ccc(F)cc2)CC1)c1ccc(O)c(O)c1,–,inactive: 9.72%
COc1cc(-c2nc3cnccn3c2Nc2ccccc2)ccc1O,"inconclusive: 6.31 µM [inhibitor, partial curve]",–
O=C(CCCN1C(=O)c2cccc3cccc(c23)C1=O)NCCN1CCOCC1,–,inconclusive: 32.5% [activator]
CCOc1cc(/C=C(\C#N)C(=O)Nc2ccc(OC)cc2)ccc1OCc1cc(=O)n2nc(CC)sc2n1,"inconclusive: 50.1 µM [inhibitor, single point]",–
CCOC(=O)N1CCC(NC2CCCCCCC2)CC1,–,inconclusive: 69.4% [activator]
CCCCN(C)CCNC(=O)c1cc(-c2ccc(Cl)s2)nc2ccccc12,–,inactive: 3.86% [at 76.3 µM]
O=C(O)c1ccc(Nc2cccc(F)c2)c([N+](=O)[O-])c1,–,inactive: 5.9%
Cc1sc(NC(=O)Nc2ccccc2)c(C(N)=O)c1C,"inconclusive: 15.8 µM [inhibitor, partial curve]",–
CCOc1ccc(NC(c2ccccc2)P(=O)(OC)OC)cc1 (stereo unspecified),"inconclusive: 11.2 µM [inhibitor, partial curve]",–
O=C(CNCc1ccco1)Nc1ccc(N2CCCCCC2)cc1,"inconclusive: 17.8 µM [inhibitor, partial curve]",–
Cc1cc(C)cc(N(CC(=O)Nc2ccc(C)cc2Cl)S(=O)(=O)c2c(C)[nH]c(=O)[nH]c2=O)c1,–,inactive: 12.3% [at 76.3 µM]
CCN(CC)c1ccc(/C=N/Nc2nc3ccccc3[nH]2)c(O)c1,"inconclusive: 35.5 µM [inhibitor, single point]",–
CC(C)N(C(=O)CSc1ncnc2sc(-c3ccccc3)cc12)C(C)C,"inconclusive: 2.51 µM [inhibitor, partial curve]",–
